About 60 (0.1%) of roughly 46,000 compounds were called active. Not shown: some 3% with an inconclusive outcome. The call rests on the fitted dose curve; in most records, active means well fitted inhibition curve with a large enough effect; inconclusive means small, poorly fitted or top-dose-only effect; inactive means no such curve, though single readings can be large or run the other way. This is one part of the list.

A short description of the test: Primary qHTS assay for Inhibitors of ovarian cancer metastasis using an organotypic tumor microenvironment (TME) model. Further: nearly all actives have a fitted effect of over 65% in size.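 On activity change, negative = inhibition: plate controls were DMSO wells for no effect and tomatine positive control wells for full effect.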 The conditions noted are these: SKOV3ip1-GFP adhesion/invasion on 3D omental model, fluorescence; series mostly up to 45.8 µM; activity change, negative = inhibition: at the top concentration. In outline:
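Adhesion/invasion was scored as fixed GFP-labeled SKOV3ip1 cell counts (488/509 nm), normalized to DMSO and tomatine controls. Cancer cells in serum-free medium, with four compound doses (0.36-46 umol/L), sat 2 hr at RT then 16 hr at 37 C on a 48 hr fibroblast/mesothelial/ECM culture.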
On the technique in general: Quantitative high-throughput screening tests each substance at several concentrations.
Turning to `CCSc1nnc2n(-c3cccc(C)c3)c(=O)c3c4c(sc3n12)CCCC4`, the “activity change, negative = inhibition” value was inactive: 9.46%.

Regarding `COc1ccc(-c2cc(C(=O)Nc3cccnc3Cl)no2)cc1OC`, the “activity change, negative = inhibition” value was inactive: -0.372%.

Take `Cc1ccc2onc(CNC(=O)N3CCN(c4cccc(C)c4C)CC3)c2c1`: the “activity change, negative = inhibition” value is inactive: -1.84%.

As to `O=C(NCCc1ccccc1)c1ccc(CS(=O)(=O)c2ccc(Br)cc2)o1`, the “activity change, negative = inhibition” value was inactive: -2.09%.

For `Cc1cc2nn(-c3ccccc3)nc2cc1NC(=O)c1cccc2c(Cl)cccc12`, the “activity change, negative = inhibition” value is inactive: -3.65%.

As to `COc1ccc(-n2ccnc2SCC(=O)Nc2ccc(F)cc2F)cc1`, the “activity change, negative = inhibition” value was inactive: -60%.

As to `CCN(CCCNC(=O)Cn1ncc2c([nH]c3ccc(C)cc32)c1=O)c1cccc(C)c1`, the “activity change, negative = inhibition” value is inactive: 1.75%.

For `CCC(=O)N1c2ccccc2CC1C(=O)NCc1ccc(OC(C)C)cc1` (configuration not stated), the “activity change, negative = inhibition” value is inactive: -3.12%.

Turning to `Cc1nc2cccnc2n1-c1cccc(C(=O)N2CCN(c3ccc(Cl)cc3)CC2)c1`, the “activity change, negative = inhibition” value was inactive: -9.68%.

For `CCOc1ccc(-c2nc(SCC(=O)Nc3ccc4c(c3)OCO4)c(-c3ccc(F)cc3)[nH]2)cc1`, the “activity change, negative = inhibition” value was inactive: -20.6%.

Turning to `CCOC(=O)Nc1ccc(NCc2ccc(F)cc2)nc1N`, the “activity change, negative = inhibition” value is inactive: -21.5%.

Take `Cc1csc2nc(-c3cccc(NC(=O)C(C)C)c3)cn12`: the “activity change, negative = inhibition” value was inactive: -17.7%.

As to `CCc1ccccc1NC(=O)c1ccc2c(c1)N(Cc1cccc(Cl)c1)C(=O)c1ccccc1S2(=O)=O`, the compound was called inactive.

On to `Cc1cccc(CCNC(=O)c2sc3nc4n(c(=O)c3c2C)CCCC4)c1`, for which the “activity change, negative = inhibition” value is inactive: 3.99%.

As to `COc1ccc(C2CC(=O)Nc3c2c(C)nn3-c2nncc(-c3ccc(C)cc3)n2)c(OC)c1OC` (configuration not stated), the “activity change, negative = inhibition” value is inactive: -0.0113%.

With `Cc1c(-c2nsc(NC(=O)c3ccccc3)n2)nnn1-c1ccc(C(F)(F)F)c(Cl)c1`, the call was inactive.

As for `CCOC(=O)c1cccc(NC(=O)[C@@H](c2ccccc2)N2Cc3ccccc3C2=O)c1`, the “activity change, negative = inhibition” value was inactive: -7.08%.

On to `O=C1c2oc3ccccc3c(=O)c2C(c2ccccc2)N1Cc1ccc2c(c1)OCO2` (configuration not stated), for which the “activity change, negative = inhibition” value is inactive: 1.9%.

Consider `CCN1C(=O)c2ccccc2Sc2ccc(C(=O)NCCCN(CC(C)C)CC(C)C)cc21`, for which the call was inactive.

In the case of `CC1COc2c(N3CCN(C)CC3)c(F)cc3c(=O)c(C(=O)O)cn1c23` (configuration not stated), the “activity change, negative = inhibition” value was inactive: -4.18%.

Take `Cc1cc(C)c(NC(=O)Cc2csc(C)n2)c(Cl)c1`: the “activity change, negative = inhibition” value was inactive: 11.9%.

As to `CCc1ccc(NC(=O)c2sc(-n3nc(C)c(Cc4ccc(OC)cc4)c3C)nc2C)cc1`, the “activity change, negative = inhibition” value was inactive: 1.65%.

For `COc1ccc(N(C)C(=O)CCn2cnc3onc(-c4ccc(F)cc4)c3c2=O)c(OC)c1`, the “activity change, negative = inhibition” value was inactive: 20.9%.

Take `COc1cccc(NC(=O)CN2C(=O)c3cccnc3Oc3ccc(Cl)cc32)c1`: the “activity change, negative = inhibition” value was inactive: -3.33%.

As for `CCOc1ccccc1NC(=O)c1nn(-c2ccc(C)cc2)c(=O)n(C)c1=O`, the “activity change, negative = inhibition” value was inactive: -7.29%.

For `CCOc1ccccc1C1C(C(=O)N2CCCCC2)=C(C)Nc2nc3ccccc3n21` (configuration not stated), the “activity change, negative = inhibition” value is inactive: 8%.

`COc1ccccc1CNc1ccc(-c2nc(-c3cccnc3)no2)cc1[N+](=O)[O-]`: the call was inactive.

Source of the values: PubChem BioAssay AID1963576 (National Center for Advancing Translational Sciences (NCATS), 2024).
